PubChem BioAssay AID624417 (National Center for Advancing Translational Sciences (NCATS), 2012)
Hit rate of the full screen: of about 410,000 compounds, about 6,400 (1.6%) were called active. The inconclusive results got no clear call from the source; some entries with a clear call stand among them for comparison. The call rests on the fitted dose curve; in most records, active means well fitted inhibition curve with a large enough effect; inconclusive means small, poorly fitted or top-dose-only effect; inactive means no such curve, though single readings can be large or run the other way. Potencies beside an inconclusive call are fits to weak or partial responses and may not hold up.

target: Glucagon-like peptide 1 receptor (Homo sapiens) (UniProt P43220); assay: qHTS of GLP-1 Receptor Inverse Agonists (Inhibition Mode); settings: HEK293 GLP-1R CRE-luciferase, luminescence, 24 h, GLP-1R form is constitutively active; activity change, negative = inhibition: at 38.3 µM (top of the series) unless noted; further: nearly all actives have a fitted effect of over 55% in size
Summary of the method: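 Cells are plated, allowed 12 hours at 37 deg C, then treated with compounds for 24 hr before luciferase detection reagent is added and luminescence is read after 12 min at room temperature. The HEK293 line carries constitutively active GLP-1R with a cAMP-responsive reporter.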
On the % scale 0 is the no-effect control and ±100 the full control effect; potency means the concentration at half of the fitted maximal effect; tags describe the fitted curve by direction and shape.

UniProt P43220, sequence (P43220 whole entry, looked up): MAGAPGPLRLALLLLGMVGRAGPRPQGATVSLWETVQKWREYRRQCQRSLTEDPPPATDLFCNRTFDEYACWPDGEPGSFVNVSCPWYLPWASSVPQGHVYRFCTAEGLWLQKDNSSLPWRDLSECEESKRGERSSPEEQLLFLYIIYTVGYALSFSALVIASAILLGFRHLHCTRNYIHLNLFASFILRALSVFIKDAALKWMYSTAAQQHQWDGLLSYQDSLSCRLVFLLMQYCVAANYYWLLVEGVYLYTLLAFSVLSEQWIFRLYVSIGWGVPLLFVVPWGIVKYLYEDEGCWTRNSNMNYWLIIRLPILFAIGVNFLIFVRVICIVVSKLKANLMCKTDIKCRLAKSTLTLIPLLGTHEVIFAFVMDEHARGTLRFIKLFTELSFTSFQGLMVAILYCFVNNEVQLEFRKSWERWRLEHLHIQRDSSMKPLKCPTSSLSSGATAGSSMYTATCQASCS

Potency, inconclusive:
O=C(Nc1ccc2c(c1)OCCO2)c1coc2ccccc2c1=O 1.12 µM [inhibitor, full curve, poor fit], CCOC(=O)C1=C(CNCc2ccccc2)NC(=O)NC1c1ccc(C)cc1 (stereo not drawn) 28.2 µM [inhibitor, partial curve, poor fit], O=C(NCCCN1CCOCC1)c1cc(S(=O)(=O)N2CCN(c3ccccc3)CC2)ccc1Cl 22.4 µM [inhibitor, partial curve, poor fit], COc1ccc(C(=O)CC(=O)c2ccccc2O)cc1 28.2 µM [inhibitor, single point], CC(C)OC(=O)C(C(=O)C(F)(F)F)c1cc(NS(=O)(=O)c2ccc3ccccc3c2)c2ccccc2c1O (stereo not drawn) 28.2 µM [inhibitor, single point], CNS(=O)(=O)c1cccc(C(=O)OCC(=O)N(Cc2ccccc2)C(C)(C)C)c1 10 µM [inhibitor, single point], CCOc1ccccc1NS(=O)(=O)c1c(C(=O)OC)sc2cccc(F)c12 10 µM [inhibitor, single point], O=C(NC1CCCCC1)c1cc2nc3c(c(C(F)(F)F)n2n1)CCCC3 10 µM [inhibitor, single point], Cc1ccc(/C=N/NC(=O)NN(C)c2ncc(C(F)(F)F)cc2Cl)cc1 1.26 µM [inhibitor, partial curve, poor fit], CCC1SC2=NC(C)=C(C(=O)OCCOC)C(/C=C/c3ccccc3OC)N2C1=O (stereo not drawn) 6.31 µM [inhibitor, partial curve, poor fit], CC(C)(C)c1ccc(/C=N/OCC(=O)NCc2ccc(F)cc2)cc1 11.2 µM [inhibitor, partial curve, poor fit], Cc1cc(=O)oc2c3c(cc(OCC(=O)NCCCn4ccnc4)c12)OC(C)(C)CC3 8.91 µM [inhibitor, partial curve, poor fit], COc1cccc(/C=N/N2CCN(Cc3ccccc3)CC2)c1O 31.6 µM [inhibitor, single point], COc1cc2c(cc1OC)C(c1ccccc1)N(C(=O)c1ccccc1F)CC2 (stereo not drawn) 28.2 µM [inhibitor, single point], O/N=C(/CCc1ccccc1)c1ccc2c(c1)OCCO2 28.2 µM [inhibitor, single point], O=C(c1[nH]nc2c1CCc1ccccc1-2)N1CCN(Cc2ccc3c(c2)OCO3)CC1 7.94 µM [inhibitor, partial curve, poor fit], Cc1ccc(CN2CCN(/N=C/c3ccc(C)s3)CC2)c(C)c1 12.6 µM [inhibitor, single point], COc1cc(-c2nnc(SCC(=O)N(C)C3CCCCC3)o2)cc(OC)c1OC 1.12 µM [inhibitor, full curve], CCCCOCCCNC(=O)C[C@@H]1C[C@@]2(C(=O)OC)CCCCC=C2N(CCC2=CCCCC2)C1=O 15.8 µM [inhibitor, single point], COc1ccccc1CNC(=O)CCSCc1cccc(Cl)c1 10 µM [inhibitor, partial curve, poor fit], CCc1ccc(C(=O)Nc2cc(C)ccc2F)s1 22.4 µM [inhibitor, single point], COc1ccc(CCC(=O)NCCc2csc(-c3cccc(F)c3)n2)cc1 11.2 µM [inhibitor, single point], N#Cc1cc(-c2ccccc2)nc(Oc2ccccc2)n1 7.94 µM [inhibitor, partial curve, poor fit], CCc1ccc(OCC2c3cc(OC)c(OC)cc3CCN2C(=O)Cc2ccc(OC)c(OC)c2)cc1 (stereo not drawn) 28.2 µM [inhibitor, single point], Cc1ccc(OCCN2CCC2(C)C(=O)NCc2ccc(C(F)(F)F)cc2)cc1 (stereo not drawn) 20 µM [inhibitor, single point], CC1(O)c2ccccc2C(=O)N1Cc1ccccc1 (stereo not drawn) 10 µM [inhibitor, single point], COc1ccc(NC(=O)c2oc3ccc4c(c3c2C)C(=O)CC(C)(C)O4)cc1OC 28.2 µM [inhibitor, single point], CCC(C(=O)OCC(=O)N1CCN(c2ccc(OC)cc2)CC1)c1ccccc1 (stereo not drawn) 11.2 µM [inhibitor, single point], CC(=O)NCC(=O)NC1CCCc2c1cnn2-c1ccc(C(C)(C)C)cc1 (stereo not drawn) 7.94 µM [inhibitor, partial curve], CSc1ccccc1NC(=O)COc1ccc(Cl)cc1Cl 7.94 µM [inhibitor, partial curve, poor fit], COc1cccc(C(=O)Oc2cc3c4c(c2)C(C)=CC(C)(C)N4C(=O)C3=O)c1 14.1 µM [inhibitor, partial curve, poor fit], COCc1cc(=O)[nH]c(SCCS(=O)(=O)c2ccc(Cl)cc2Cl)n1 20 µM [inhibitor, single point], CC1(C)CC(=O)C=C(c2ccc3ccccc3c2)C1 14.1 µM [inhibitor, single point], COc1ccc(S(=O)(=O)n2cnc3ccccc32)c(C)c1 28.2 µM [inhibitor, single point], CC1=C(C(=O)Nc2cccc(C(=O)N3CCN(c4cccc(C(F)(F)F)c4)CC3)c2)SCCO1 28.2 µM [inhibitor, single point], CCCCCn1c(=O)[nH]c2cc(C(=O)NCCN3CCOCC3)ccc2c1=O 15.8 µM [inhibitor, single point], O=C(c1ccc(-c2ccccc2)cc1)N1CCN(c2ccc3c(c2)C2CC3CCN2C(=O)OCc2ccccc2)CC1 (stereo not drawn) 6.31 µM [inhibitor, partial curve, poor fit], Cc1cc(C)cc(NC(=O)c2ccccc2CC[N+](=O)[O-])c1 28.2 µM [inhibitor, single point], Cc1ccc2cc(CN(CCc3ccccc3)C(=S)NCCCN(C)C)c(=O)[nH]c2c1 3.55 µM [inhibitor, partial curve, poor fit], CC(=O)N(CCOc1ccccc1)CCOc1ccccc1 11.2 µM [inhibitor, single point], CN(C)C(CNc1ccc(C(F)(F)F)cc1[N+](=O)[O-])c1ccccc1 (stereo not drawn) 7.08 µM [inhibitor, partial curve, poor fit], O=C(N/N=C\c1c(O)ccc2ccccc12)c1ccc(O)cc1 3.16 µM [inhibitor, full curve], O=C(NCCCN1CCCC1)c1ccc(CS(=O)(=O)c2ccc(Cl)cc2)o1 11.2 µM [inhibitor, partial curve, poor fit], CC1CN(C(=O)c2cc(-c3ccc(Cl)s3)nc3ccccc23)CC(C)O1 (stereo not drawn) 10 µM [inhibitor, partial curve, poor fit], COC(=O)c1ccc(NC(=O)c2nn(C)c3c2COc2ccccc2-3)cc1 22.4 µM [inhibitor, single point], c1ccc(SCCN2CCN(c3ccccc3)CC2)cc1 17.8 µM [inhibitor, partial curve, poor fit], CC1CN=C(c2cccn2Cc2ccc(F)cc2Cl)O1 (stereo not drawn) 28.2 µM [inhibitor, single point], COc1cc(NC(=O)CSc2ccc3c(c2)OCCO3)cc(OC)c1OC 10 µM [inhibitor, partial curve, poor fit], CCCC(=O)Nc1sc2c(c1C(=O)OC)C(C(=O)OC)CC2 (stereo not drawn) 3.16 µM [inhibitor, partial curve, poor fit], c1ccc(-c2noc(-c3ccncc3)n2)nc1 25.1 µM [inhibitor, partial curve, poor fit], Cc1nc2cc(NC(=O)c3ccc(Cl)cc3)ccc2n1C 11.2 µM [inhibitor, partial curve, poor fit]

Activity change, negative = inhibition, inactive:
c1ccc(CN2CCN(Cc3nnc(-c4ccccc4)o3)CC2)cc1 14.1%, COc1ccc(N(C(=O)c2ccccc2C)S(=O)(=O)c2ccc3c(c2)n(C)c(=O)n3C)cc1 4.33%, CCN(c1ncnc2c1c(-c1ccccc1)cn2-c1ccccc1)C1CCCCC1 1.85%, Cc1ccc(OCC(=O)OCc2cc(=O)n3nc(C4CCCCC4)sc3n2)cc1 14.4%, N/C(=N\S(=O)(=O)c1cc(C(F)(F)F)cc(C(F)(F)F)c1)c1ccncc1 0.283%, COCCCn1c(=S)[nH]c2sc3c(c2c1=O)CCCC3 30.2%, CC1(C(=O)NS(=O)(=O)c2cccc(C#N)c2)CCN1C(=O)CCC1CCCC1 (stereo not drawn) 3.74%, O=[N+]([O-])c1ccccc1OCCN1CCCC1 -9.51%, Cc1ccc(-c2ccc(/C=C3/NC(=O)NC3=O)o2)cc1[N+](=O)[O-] 5.45%, COc1ccc(-c2noc(CSc3nnc(-c4ccncc4)n3-c3cccc(C)c3)n2)cc1OC 17.6%, COc1ccc(C(CNC(=O)C(C)Oc2ccc(Br)cc2)N2CCOCC2)cc1 (stereo not drawn) -4.89%, CN(C(=O)Cn1nc(C(=O)O)c2ccccc2c1=O)C1CCCCC1 8.43%
